These results are taken from patent US20060177456A1 (published 2006).

The experiment addresses T1, soluble poly-histidine-tagged Apo-2 ligand (amino acids 114-281) (UniProt P50591 114-281).
T1 chain: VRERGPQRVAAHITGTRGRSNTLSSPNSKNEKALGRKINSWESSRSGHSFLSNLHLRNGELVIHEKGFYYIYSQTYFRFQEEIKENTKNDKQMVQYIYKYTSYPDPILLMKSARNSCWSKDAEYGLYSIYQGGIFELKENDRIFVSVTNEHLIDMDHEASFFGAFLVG
The experiment in a line: affinity (FIG. 13).

B1: DR4-IgG (DR4 extracellular domain fused to the hinge and Fc region of human immunoglobulin G1 heavy chain) (Fc fusion)
chain: not shown
Consider B1, for which the affinity, expressed as Kd, was 0.082 nM.
